In the antibiotic and cytotoxicity screens of Wong et al. (2023):
This is one part of the list.

Each molecule was assayed on S. aureus RN4220 (assay: growth inhibition call (relative growth <= 0.2)). Details: 50 µM.

Row | Compound | growth inhibition call
1 | O=C(C[C@@H]1CC[C@@H]2[C@H](COC[C@@H](O)CN2S(=O)(=O)c2ccc(F)cc2)O1)NCCN1CCCCC1 | inactive
2 | NCCc1[nH]cnc1-c1cccs1 | inactive
3 | CC(C)CNC(=O)[C@@]1(c2ccc([N+](=O)[O-])cc2)CC(=O)N(CC23CC4CC(CC(C4)C2)C3)[C@@H]1c1ccc(CO)cc1I | inactive
4 | CNC1(C)C2CCC(C2)C1(C)C.Cl (stereo not given) | inactive
5 | Nc1nc(-c2ccccc2)cc[n+]1[O-] | inactive
6 | Cc1ccc(C(=O)Nc2ccc(S(=O)(=O)[O-])c3cc(S(=O)(=O)[O-])cc(S(=O)(=O)[O-])c23)cc1NC(=O)c1cccc(NC(=O)Nc2cccc(C(=O)Nc3cc(C(=O)Nc4ccc(S(=O)(=O)[O-])c5cc(S(=O)(=O)[O-])cc(S(=O)(=O)[O-])c45)ccc3C)c2)c1.[Na+].[Na+].[Na+].[Na+].[Na+].[Na+] | inactive
7 | O=C(c1ccncc1)N1C[C@H]2[C@@H](c3ccccc31)[C@@H](CO)N2C(=O)CN1CCOCC1 | inactive
8 | CN(C)c1ccc(O)c2c1C[C@H]1C[C@H]3[C@H](N(C)C)C(=O)[C@@H](C(N)=O)C(=O)[C@@]3(O)C(=O)[C@H]1C2=O | active
9 | C[C@@H]1CCCCO[C@@H](CN(C)C(=O)Nc2ccc3c(c2)OCO3)[C@H](C)CN([C@@H](C)CO)C(=O)c2cc(NC(=O)Nc3cccc4ccccc34)ccc2O1 | inactive
10 | COc1ccc(CN(C)C[C@H]2OCCCC[C@H](C)Oc3ccc(NC(=O)CCC(F)(F)F)cc3C(=O)N([C@H](C)CO)C[C@@H]2C)cc1 | inactive
